Drawing on publication PMC9911399, “Two distinct binding modes provide the RNA-binding protein RbFox with extraordinary sequence specificity”, this text covers binding signal for 31 molecules.

B1: AGCCGAG (DNA:RNA)
RNA: GGGAGACCGGAAUUCAGAUUGUCCAGCCGAGUUAAAUCCCGUCGUAGCCACCA
DNA 1: CAATCTGAATTCCGGTCTCCC
DNA 2: TGGTGGCTACGACGGGATT
B2: AAGAGCU (DNA:RNA)
RNA: B1 RNA with G26A, C27G, C28A, A30C, G31U
DNA 1: CAATCTGAATTCCGGTCTCCC
DNA 2: TGGTGGCTACGACGGGATT
B3: UAACUCG (DNA:RNA)
RNA: B1 RNA with A25U, G26A, C27A, G29U, A30C
DNA 1: CAATCTGAATTCCGGTCTCCC
DNA 2: TGGTGGCTACGACGGGATT
B4: CAUGUUC (DNA:RNA)
RNA: GGGAGACCGGAAUUCAGAUUGUCCCAUGUUCUUAAAUCCCGUCGUAGCCACCA
DNA 1: CAATCTGAATTCCGGTCTCCC
DNA 2: TGGTGGCTACGACGGGATT
B5: UGCCCCA (DNA:RNA)
RNA: B1 RNA with A25U, G29C, A30C, G31A
DNA 1: CAATCTGAATTCCGGTCTCCC
DNA 2: TGGTGGCTACGACGGGATT
B6: UAAAACC (DNA:RNA)
RNA: B4 RNA with C25U, U27A, G28A, U29A, U30C
DNA 1: CAATCTGAATTCCGGTCTCCC
DNA 2: TGGTGGCTACGACGGGATT
B7: UCGUACA (DNA:RNA)
RNA: GGGAGACCGGAAUUCAGAUUGUCCUCGUACAUUAAAUCCCGUCGUAGCCACCA
DNA 1: CAATCTGAATTCCGGTCTCCC
DNA 2: TGGTGGCTACGACGGGATT
B8: GAUAUGA (DNA:RNA)
RNA: B4 RNA with C25G, G28A, U30G, C31A
DNA 1: CAATCTGAATTCCGGTCTCCC
DNA 2: TGGTGGCTACGACGGGATT
B9: AAGCAGA (DNA:RNA)
RNA: B7 RNA with U25A, C26A, U28C, C30G
DNA 1: CAATCTGAATTCCGGTCTCCC
DNA 2: TGGTGGCTACGACGGGATT
B10: AUUUGUG (DNA:RNA)
RNA: B1 RNA with G26U, C27U, C28U, A30U
DNA 1: CAATCTGAATTCCGGTCTCCC
DNA 2: TGGTGGCTACGACGGGATT
B11: UAUUAGU (DNA:RNA)
RNA: B7 RNA with C26A, G27U, C30G, A31U
DNA 1: CAATCTGAATTCCGGTCTCCC
DNA 2: TGGTGGCTACGACGGGATT
B12: CGUGAUA (DNA:RNA)
RNA: B4 RNA with A26G, U29A, C31A
DNA 1: CAATCTGAATTCCGGTCTCCC
DNA 2: TGGTGGCTACGACGGGATT
B13: CCUAGUC (DNA:RNA)
RNA: B4 RNA with A26C, G28A, U29G
DNA 1: CAATCTGAATTCCGGTCTCCC
DNA 2: TGGTGGCTACGACGGGATT
B14: AACGUGU (DNA:RNA)
RNA: B4 RNA with C25A, U27C, U30G, C31U
DNA 1: CAATCTGAATTCCGGTCTCCC
DNA 2: TGGTGGCTACGACGGGATT
B15: UCGCGGU (DNA:RNA)
RNA: B7 RNA with U28C, A29G, C30G, A31U
DNA 1: CAATCTGAATTCCGGTCTCCC
DNA 2: TGGTGGCTACGACGGGATT
B16: CAUUAGG (DNA:RNA)
RNA: B4 RNA with G28U, U29A, U30G, C31G
DNA 1: CAATCTGAATTCCGGTCTCCC
DNA 2: TGGTGGCTACGACGGGATT
B17: AGGCAAA (DNA:RNA)
RNA: B1 RNA with C27G, G29A, G31A
DNA 1: CAATCTGAATTCCGGTCTCCC
DNA 2: TGGTGGCTACGACGGGATT
B18: GGGGGGG (DNA:RNA)
RNA: B1 RNA with A25G, C27G, C28G, A30G
DNA 1: CAATCTGAATTCCGGTCTCCC
DNA 2: TGGTGGCTACGACGGGATT
B19: AUGAGCU (DNA:RNA)
RNA: B1 RNA with G26U, C27G, C28A, A30C, G31U
DNA 1: CAATCTGAATTCCGGTCTCCC
DNA 2: TGGTGGCTACGACGGGATT
B20: ACGUCUA (DNA:RNA)
RNA: B7 RNA with U25A, A29C, C30U
DNA 1: CAATCTGAATTCCGGTCTCCC
DNA 2: TGGTGGCTACGACGGGATT
B21: UCUCGCU (DNA:RNA)
RNA: B7 RNA with G27U, U28C, A29G, A31U
DNA 1: CAATCTGAATTCCGGTCTCCC
DNA 2: TGGTGGCTACGACGGGATT
B22: AAACUGU (DNA:RNA)
RNA: B1 RNA with G26A, C27A, G29U, A30G, G31U
DNA 1: CAATCTGAATTCCGGTCTCCC
DNA 2: TGGTGGCTACGACGGGATT
B23: CUAAAAU (DNA:RNA)
RNA: B1 RNA with A25C, G26U, C27A, C28A, G29A, G31U
DNA 1: CAATCTGAATTCCGGTCTCCC
DNA 2: TGGTGGCTACGACGGGATT
B24: AUUUCCC (DNA:RNA)
RNA: B4 RNA with C25A, A26U, G28U, U29C, U30C
DNA 1: CAATCTGAATTCCGGTCTCCC
DNA 2: TGGTGGCTACGACGGGATT
B25: UGCCAAC (DNA:RNA)
RNA: B1 RNA with A25U, G29A, G31C
DNA 1: CAATCTGAATTCCGGTCTCCC
DNA 2: TGGTGGCTACGACGGGATT
B26: UUUCGAA (DNA:RNA)
RNA: B1 RNA with A25U, G26U, C27U, G31A
DNA 1: CAATCTGAATTCCGGTCTCCC
DNA 2: TGGTGGCTACGACGGGATT
B27: GUUUCUU (DNA:RNA)
RNA: B4 RNA with C25G, A26U, G28U, U29C, C31U
DNA 1: CAATCTGAATTCCGGTCTCCC
DNA 2: TGGTGGCTACGACGGGATT
B28: CCUGUCU (DNA:RNA)
RNA: B4 RNA with A26C, U30C, C31U
DNA 1: CAATCTGAATTCCGGTCTCCC
DNA 2: TGGTGGCTACGACGGGATT
B29: CCGCUCC (DNA:RNA)
RNA: B4 RNA with A26C, U27G, G28C, U30C
DNA 1: CAATCTGAATTCCGGTCTCCC
DNA 2: TGGTGGCTACGACGGGATT
B30: UACGUUC (DNA:RNA)
RNA: B4 RNA with C25U, U27C
DNA 1: CAATCTGAATTCCGGTCTCCC
DNA 2: TGGTGGCTACGACGGGATT
B31: CUACCAA (DNA:RNA)
RNA: B1 RNA with A25C, G26U, C27A, G29C, G31A
DNA 1: CAATCTGAATTCCGGTCTCCC
DNA 2: TGGTGGCTACGACGGGATT

Changes are numbered by the printed parent chain; changes in the protein carry UniProt numbers. This is one part of the list.

The test concerns the target T1, RBFOX1 RRM (Homo sapiens, UniProt Q9NWB1 109-208).
T1 sequence: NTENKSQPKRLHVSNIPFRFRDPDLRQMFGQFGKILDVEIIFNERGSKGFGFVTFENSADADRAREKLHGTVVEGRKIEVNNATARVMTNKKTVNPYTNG
In words: EMSA; HiTS-Eq, 1 nM pool, 10 min; buffer printed only for the single-RNA assays: 10 mM Tris pH 7.5, 150 mM NaCl, 3.4 mM EDTA, 0.001% NP-40, 30 C. Particulars: tags: His6 N-terminal (pET28a); label: 5' 32P. In a few lines:
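Purified RbFox RRM (wild type or mutant) was equilibrated for 10 min in 50 µL with 1 nM of a 5′-radiolabelled pool of RNA with 7 randomized nucleotides, its flanks annealed to DNA oligonucleotides, across increasing protein concentrations. Free RNA was separated by 8% native PAGE, excised, reverse-transcribed, PCR-barcoded and sequenced on an Illumina HiSeq 2500. Relative association constants came from read-count changes of each variant against the control reaction, normalised to the cognate motif.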
(Mobility shift assays separate free from complexed probe on a gel.)
Regarding B1, the binding signal was 0.0126 KA relative to UGCAUGU. Next, B2: 0.00506 KA relative to UGCAUGU; B3: 0.0117 KA relative to UGCAUGU; B4: 0.00667 KA relative to UGCAUGU. Take B5: the binding signal is 0.00485 KA relative to UGCAUGU. Take B6: the binding signal was 0.00054 KA relative to UGCAUGU. On to B7, for which the binding signal is 0.00388 KA relative to UGCAUGU. Under B8 stands 0.0126 KA relative to UGCAUGU. Turning to B9, the binding signal is 0.0037 KA relative to UGCAUGU. Turning to B10, the binding signal was 0.0207 KA relative to UGCAUGU. In the case of B11, the binding signal is 0.0147 KA relative to UGCAUGU. In the case of B12, the binding signal is 0.00767 KA relative to UGCAUGU.

In the case of B13, the binding signal was 0.00613 KA relative to UGCAUGU. Under B14 stands 0.00705 KA relative to UGCAUGU.

In the case of B15, the binding signal was 0.0136 KA relative to UGCAUGU.

In the case of B16, the binding signal was 0.00819 KA relative to UGCAUGU. With B17, the binding signal is 0.00462 KA relative to UGCAUGU. B18: the binding signal is 0.0247 KA relative to UGCAUGU. Next, B19: 0.00823 KA relative to UGCAUGU. Next, B20: 0.00358 KA relative to UGCAUGU; B21: 0.0104 KA relative to UGCAUGU. Turning to B22, the binding signal was 0.00602 KA relative to UGCAUGU. Under B23 stands 0.00148 KA relative to UGCAUGU; under B24, 0.00575 KA relative to UGCAUGU. Next, B25: 0.0122 KA relative to UGCAUGU. Next, B26: 0.0132 KA relative to UGCAUGU. Regarding B27, the binding signal is 0.0153 KA relative to UGCAUGU. Take B28: the binding signal was 0.0102 KA relative to UGCAUGU. Turning to B29, the binding signal was 0.0062 KA relative to UGCAUGU. Under B30 stands 0.00951 KA relative to UGCAUGU; under B31, 0.00122 KA relative to UGCAUGU.
